{"source": "PubChem BioAssay AID1347417", "about": "(National Center for Advancing Translational Sciences (NCATS), 2020)", "note": "In all, about 120,000 compounds went through this assay and about 5,300 (4.4%) were called active. This list was built around the results that the source calls inconclusive (neither active nor inactive); the mix of calls is not that of the screen. Calls come from the whole dose curve; as a rule, active = well fitted inhibition curve with a large enough effect; inconclusive = small, poorly fitted or top-dose-only effect; inactive = no such curve, though single readings can be large or run the other way. A potency beside an inconclusive call is a rough fit, not a confirmed value. Potency is the fitted concentration of half-maximal effect; tags give direction and shape of the fitted curve.", "data": [{"test": "qHTS Primary assay for Inhibitors of Plasmodium falciparum Dd2 growth in vitro; note: nearly all actives have a fitted effect of over 65% in size;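 for activity, negative = inhibition: plate controls were DMSO vehicle for no effect and reference drug for full effect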", "conditions": "P. falciparum Dd2 growth, SYBR Green, 72 h; activity, negative = inhibition: at 28.9 µM (top of the series) unless noted; series mostly up to 28.9 µM", "summary_of_the_method": "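Infected erythrocytes (Dd2, 0.3% parasitemia, 2.5% hematocrit final) are added to compound in RPMI-1640/Albumax II medium, grown 72 h at 37C in low oxygen, then lysed with saponin/Triton-X containing SYBR Green and read by fluorescence.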", "values": [{"compound": "CN1C[C@@H](NC(=O)c2ccc(C#N)cc2)C[C@H]1c1nc(-c2ccc(OC(F)(F)F)cc2)no1", "Potency": "inconclusive: 17.8 µM [inhibitor, single point]"}, {"compound": "CN(C)Cc1nnc(C2CC(NC(=O)c3ccccc3-c3ncn[nH]3)C2)n1C", "note": "(stereo not given)", "Potency": "inactive"}, {"compound": "Cc1cc(=O)oc2c3c(ccc12)OCN(Cc1ccccc1Cl)C3", "Potency": "inconclusive: 3.55 µM [inhibitor, partial curve, poor fit]"}, {"compound": "Cc1ccc(Cn2c(C3CCN(C(=O)c4ccc(C)c(C)c4)CC3)n[nH]c2=O)cc1", "Potency": "inconclusive: 20 µM [inhibitor, single point]"}, {"compound": "CC(C)Cc1cc(CNc2nccc(-c3cc(C(=O)O)ccn3)n2)no1", "Potency": "inconclusive: 0.141 µM [inhibitor, full curve, poor fit]"}, {"compound": "COC[C@@H]1CN(Cc2c(OC)cccc2OC)C[C@H]1c1ccncc1", "Potency": "active: 4.47 µM"}, {"compound": "CCCN(CC1CCOC1)C(=O)CCCc1ccccc1", "note": "(stereo not given)", "activity, negative = inhibition": "inactive: -11.5% [at 5.79 µM]"}, {"compound": "N#Cc1ccc(CN2CCCCCCNC(=O)CC2c2ccccc2)cc1", "note": "(stereo not given)", "Potency": "inactive"}, {"compound": "COc1cccc(-c2noc(CC3CCN(C(=O)c4cccc(Cl)c4)CC3)n2)c1", "Potency": "inconclusive: 15.8 µM [inhibitor, single point]"}, {"compound": "CCn1cc(CNc2ncc(C(C)(C)C(=O)O)c(N3CCOCC3)n2)cn1", "Potency": "inactive"}, {"compound": "Cc1nc2c(c(-c3ccc(Cl)cc3)n1)CCN([S+](=O)([O-])c1c(C)noc1C)CC2", "Potency": "inconclusive: 11.2 µM [inhibitor, single point]"}, {"compound": "COc1cc(NC(=O)NC[C@H]2O[C@@H](CO)[C@@H](O)[C@H]2N2CCN(c3ccccc3)CC2)cc(OC)c1", "Potency": "inactive"}, {"compound": "CCCc1noc(-c2ccn3c(CNC(=O)c4ccccc4OC)nnc3c2)n1", "Potency": "inactive"}, {"compound": "CCOc1ccc2nc(N(Cc3cccnc3)C(=O)c3ccc4c(c3)OCCO4)sc2c1", "Potency": "inconclusive: 11.2 µM [inhibitor, single point]"}, {"compound": "COc1ccc(-c2noc(-c3cccn3CC(=O)Nc3c(C)cccc3Cl)n2)cc1F", "Potency": "inconclusive: 2.51 µM [inhibitor, partial curve, poor fit]"}, {"compound": "O=C1NC(=NC2CCCC2)C2(CCCN(CC3CC3)C2)N1c1cc(F)cc(F)c1", "note": "(stereo not given)", "Potency": "inconclusive: 1.26 µM [inhibitor, full curve]"}, {"compound": "COc1ccc(CN2CCOC[C@H]2c2ncc(-c3cccnc3)[nH]2)cc1", "Potency": "inconclusive: 31.6 µM [inhibitor, single point]"}, {"compound": "O=C1CCN(S(=O)(=O)c2ccccc2)CCCN(C(=O)CCc2c[nH]c3ccccc23)CCN1", "Potency": "inconclusive: 17.8 µM [inhibitor, single point]"}, {"compound": "CCn1cc(C(=O)N2C[C@@H](COc3ccccc3)[C@H](C(N)=O)C2)cn1", "Potency": "inconclusive: 3.98 µM [inhibitor, single point]"}, {"compound": "O=C(NCc1ccncc1)C1CN(S(=O)(=O)c2cccnc2)CC12CCCCC2", "note": "(stereo not given)", "Potency": "inactive"}, {"compound": "COCCn1c(CNC(=O)c2cc([N+](=O)[O-])ccc2Cl)nc2cccnc21", "Potency": "inactive"}, {"compound": "CC(=O)N1CCC2(CC1)CN(C(=O)Cc1cccc(O)c1)Cc1ccccc1O2", "Potency": "inconclusive: 6.31 µM [inhibitor, partial curve, poor fit]"}, {"compound": "CN(Cc1ccccc1)C(=O)C[C@@H]1c2nc(NC(=O)c3c(F)cccc3F)sc2C[C@@H]2[C@](C)(CO)[C@H](O)CC[C@]21C", "Potency": "inconclusive: 11.2 µM [inhibitor, single point]"}, {"compound": "FC(F)(F)c1ccc(N2C3CCC2CN(CC2CCCC2)C3)cc1", "Potency": "inconclusive: 22.4 µM [inhibitor, single point]"}, {"compound": "CNC(=O)[C@@H]1CN(C(=O)c2c(F)cccc2F)C[C@H]1C1CCN(C)CC1", "Potency": "inactive"}, {"compound": "CC(C)Oc1ccc(C(=O)Nc2ccc3oc(-c4ccncc4)nc3c2)cc1", "Potency": "inconclusive: 0.501 µM [inhibitor, full curve, poor fit]"}, {"compound": "CN1c2cc(C(=O)NCc3ccccc3Br)ccc2C(=O)N2CCCCC21", "note": "(stereo not given)", "Potency": "active: 7.08 µM"}, {"compound": "COc1ccc2c(c1)CCc1c(C(=O)Nc3c(C)nn(Cc4ccccc4Cl)c3C)noc1-2", "Potency": "inconclusive: 17.8 µM [inhibitor, single point]"}, {"compound": "Cn1c(=O)c2c(nc(NCCc3ccccc3)n2Cc2cccc(Br)c2)n(C)c1=O", "Potency": "inconclusive: 10 µM [inhibitor, single point]"}, {"compound": "N#Cc1cccc(NC(=O)COc2ccc(-c3nnc4n3CCCC4)cc2)c1", "Potency": "inconclusive: 15.8 µM [inhibitor, partial curve, poor fit]"}, {"compound": "CCc1ccc(NC(=O)Cn2c(C)ccc(NS(=O)(=O)c3ccc(C)cc3)c2=O)cc1", "Potency": "inconclusive: 20 µM [inhibitor, single point]"}, {"compound": "CCN(CC)C(=O)CC[C@@H]1CNC(=O)[C@@H]2C[C@H](NCc3ccc(N(C)C)cc3)CN12", "Potency": "inactive"}, {"compound": "COc1cccc(CN2CCC(Oc3ccc(-c4noc(C5CC5)n4)cc3)C2)c1", "note": "(stereo not given)", "Potency": "inconclusive: 0.794 µM [inhibitor, partial curve]"}, {"compound": "O=c1[nH]c(N2CCOCC2)nc2c1CCN(Cc1ccccc1C(F)(F)F)CC2", "Potency": "inconclusive: 0.708 µM [inhibitor, full curve, poor fit]"}, {"compound": "CN(C)C[C@@H]1CN(C2CCOCC2)C[C@H]1NC(=O)c1ccc2ccccc2n1", "Potency": "inconclusive: 17.8 µM [inhibitor, single point]"}, {"compound": "COc1cc(NC(=O)CCc2c(C)nc3c(c(C)nn3-c3ccccc3)c2C)cc(OC)c1OC", "Potency": "inconclusive: 17.8 µM [inhibitor, single point]"}, {"compound": "COc1ccccc1CNC(=O)Nc1ccc2c(c1)N(C)C(=O)c1ccccc1S2", "Potency": "inconclusive: 10 µM [inhibitor, single point]"}, {"compound": "Cc1ccc(NC(=O)Cn2nc3n(c2=O)CCCC3)cc1", "Potency": "inconclusive: 15.8 µM [inhibitor, single point]"}, {"compound": "COc1ccc(-c2nc(C(C)C)nc3c2CCN(C(=O)c2ccc(F)cc2)CC3)cc1", "Potency": "active: 11.2 µM"}, {"compound": "Clc1cccc(-c2noc3ncnc(NC4CCCCC4)c23)c1", "Potency": "inconclusive: 3.98 µM [inhibitor, partial curve, poor fit]"}, {"compound": "O=C(NCc1cccs1)c1ccc(CSc2nc3ccncc3n2Cc2cccc(F)c2)cc1", "Potency": "active: 8.91 µM"}, {"compound": "Cc1ccc(NC(=O)C2CCN(c3nc4ccccc4[nH]3)CC2)cc1Cl", "Potency": "inconclusive: 17.8 µM [inhibitor, single point]"}, {"compound": "CCO[C@H]1CN(Cc2cnc(SCc3ccccc3)nc2)C[C@@H]1O", "Potency": "inactive"}, {"compound": "O=C(N[C@H]1[C@H]2CCO[C@H]2[C@@H]1N1CCCCC1)c1ccccc1-c1nn[nH]n1", "Potency": "inactive"}, {"compound": "C[C@@H]1CN(Cc2cc(C(N)=O)oc2C(C)(C)C)CC[C@@]1(O)C1CCC1", "Potency": "inconclusive: 8.91 µM [inhibitor, partial curve]"}, {"compound": "CCN(Cc1ccccc1)C(=O)Nc1ccc2c(c1)N(C)C(=O)c1ccccc1S2", "Potency": "inconclusive: 7.94 µM [inhibitor, partial curve, poor fit]"}, {"compound": "COc1ccccc1C(=O)N1CCCn2nc(C)c(-c3ccccc3N3CCCC3)c21", "Potency": "inconclusive: 6.31 µM [inhibitor, partial curve, poor fit]"}, {"compound": "Cc1ccc(C(=O)Nc2ccc3c(c2)N(C)C(=O)c2ccccc2S3)cc1F", "Potency": "inconclusive: 11.2 µM [inhibitor, single point]"}, {"compound": "CCOc1ccccc1C1NC(=O)N(CC(=O)NCc2ccc(C)cc2)C2=C1C(=O)OC2", "note": "(stereo not given)", "Potency": "inactive"}, {"compound": "COc1ccc(NC(=O)c2cccc3c2CCN3C(=O)c2ccc(F)cc2)cc1OC", "Potency": "inconclusive: 1.78 µM [inhibitor, partial curve, poor fit]"}, {"compound": "Cn1nccc1C(O)c1cc2n(n1)CCN(CC(=O)N1CCOCC1)C2", "note": "(stereo not given)", "Potency": "inactive"}, {"compound": "C=Cc1ccc(Cn2c(=O)n(-c3ccccc3C)c(=O)c3c4c(sc32)CN(C(C)=O)CC4)cc1", "Potency": "inconclusive: 10 µM [inhibitor, partial curve, poor fit]"}, {"compound": "CCc1nn(CC(=O)Nc2c(C)cc(C)cc2C)c(=O)c2cc3sccc3n12", "Potency": "inactive"}, {"compound": "CCCN1CCN(C(=O)c2ccnc(C(C)C)n2)[C@H]2CS(=O)(=O)C[C@H]21", "Potency": "inactive"}, {"compound": "CN1CCc2c([nH]c3ccccc23)C12CCN(S(=O)(=O)c1cccnc1)CC2", "Potency": "active: 4.47 µM"}, {"compound": "CCCS(=O)(=O)NC[C@H]1C[C@@H]2CCN1C[C@@H]2c1cc(C2CCCC2)nn1C", "Potency": "inconclusive: 11.2 µM [inhibitor, partial curve, poor fit]"}, {"compound": "O=C(Nc1nn(Cc2ccccc2)c2cccc(N3CCOCC3)c12)c1ccncc1", "Potency": "inactive"}, {"compound": "O=C(NCc1nnc2ccc(-c3ccccc3)nn12)c1ccccc1Cl", "Potency": "inactive"}, {"compound": "Cc1cc(C)cc(C(=O)N2CCCN(C)c3ccccc32)c1", "Potency": "inconclusive: 17.8 µM [inhibitor, single point]"}, {"compound": "Cc1cccc(C(C(=O)N2CCC(CCn3ccnc3C)CC2)N(C)C)c1", "note": "(stereo not given)", "Potency": "active: 7.94 µM"}, {"compound": "Cc1ccc(NC(=O)Cn2c(=O)n(Cc3ccc4c(c3)OCO4)c(=O)c3ccc(C(=O)NC4CCCCC4)cc32)cc1", "Potency": "inconclusive: 10 µM [inhibitor, single point]"}, {"compound": "CCOC(=O)C(C)N1CCOc2c(O)cc(-c3cccc(Cl)c3)cc2C1", "note": "(stereo not given)", "Potency": "active: 11.2 µM"}, {"compound": "CN1C(=O)C2(CCN(C(=O)c3ccn(C(C)(C)C)c3)CC2)c2ccccc21", "Potency": "inconclusive: 1.26 µM [inhibitor, full curve, poor fit]"}, {"compound": "Cc1cccc(Cn2nnc3c(=O)[nH]c(C4CCN(C(=O)c5ccccc5F)CC4)nc32)c1", "Potency": "inactive"}, {"compound": "COCCN1CCCN(C(=O)c2cccc(Cl)c2)c2ccccc21", "Potency": "inconclusive: 10 µM [inhibitor, single point]"}]}]}
